Results from patent publication US11178870B2 (priority 2017, dated 2021).

How the values were obtained:
Magnaporthe grisea = format: in vivo; conditions: class of control value, Table 7
Phytophthora infestans = format: in vivo; conditions: class of control value, Table 7
[1] = tested on: Colletotrichum orbiculare; conditions: 250 ppm spray, 2.5 ml/pot; investigated 6 to 10 days after inoculation

| SMILES | Test A control value (blast on rice) (Magnaporthe grisea) | Test F control value (late blight on tomato) (Phytophthora infestans) | Test H control value (anthracnose on cucumber) [1] |
| --- | --- | --- | --- |
| Cn1c(-c2ccc(F)cc2Cl)c(-n2cc(Cl)cn2)ccc1=O [Compound 451] | L (L shows the control value of 50% or less) | L (L shows the control value of 50% or less) | L (L shows the control value of 50% or less) |
| Cn1c(-c2ccc(F)cc2Cl)c(-n2cc(F)cn2)ccc1=O [Compound 481] | L (L shows the control value of 50% or less) | L (L shows the control value of 50% or less) | L (L shows the control value of 50% or less) |
| CCn1c(-c2ccc(OC)cc2Cl)c(-c2ccsc2Cl)cc(Br)c1=O [Compound 504] | H (H shows the control value more than 50%) | L (L shows the control value of 50% or less) | H (H shows the control value more than 50%) |
| Cc1ccsc1-c1cc(Cl)c(=O)n(C)c1-c1c(F)cccc1F [Compound 498] | H (H shows the control value more than 50%) | L (L shows the control value of 50% or less) | H (H shows the control value more than 50%) |
| Cc1sc(Br)cc1-c1cc(Br)c(=O)n(CC(F)F)c1-c1c(F)cccc1F [Compound 494] | H (H shows the control value more than 50%) | L (L shows the control value of 50% or less) | H (H shows the control value more than 50%) |
